One compound from PubChem BioAssay AID651554 (The Scripps Research Institute Molecular Screening Center, 2012) can be followed below.

A number of entries come with more than one value. This list holds those alone.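 How the source made its calls: active means either panel giving IC50 at or below 10 µM; inactive means both panels giving IC50 over 10 µM.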 The source may hold further records. Results that share an entry are repeated measurements (runs, samples, wells, individuals or studies). A tag in brackets gives the origin of a value. The letters are not those of the source and start again with each entry.

In this assay the target is Melanocortin receptor 4 (Homo sapiens) (UniProt P32245). The assay is described as follows: inhibition of MC4R-driven cAMP production – cell-based, FRET, biased ligands, late-stage follow-up (AID 651554). The settings on record: U2OS MC4R, Melanotan II cAMP TR-FRET antagonist; run 1. (cAMP levels reflect the balance of adenylyl cyclase and phosphodiesterase activity.)
UniProt P32245, sequence (P32245 whole entry, looked up): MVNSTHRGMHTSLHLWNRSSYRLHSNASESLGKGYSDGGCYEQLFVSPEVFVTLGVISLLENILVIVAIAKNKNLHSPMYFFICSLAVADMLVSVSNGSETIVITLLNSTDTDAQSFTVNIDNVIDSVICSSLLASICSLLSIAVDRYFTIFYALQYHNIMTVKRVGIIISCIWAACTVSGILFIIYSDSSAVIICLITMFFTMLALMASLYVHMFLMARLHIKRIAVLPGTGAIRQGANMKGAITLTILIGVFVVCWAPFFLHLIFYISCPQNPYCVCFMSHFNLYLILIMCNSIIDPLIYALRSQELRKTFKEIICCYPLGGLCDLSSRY

A word on the IC50: it is the concentration that gives 50% inhibition. A higher IC50 goes with weaker potency in that assay. `CCC1CCCCN1S(=O)(=O)c1ccc(NC(=O)c2nc(S(C)(=O)=O)ncc2Cl)cc1` (stereo unspecified): the IC50 is 6.37 µM [sample A] and inactive [sample B].
